# Some of the results follow.
# B1: BTL (Bryothamnion triquetrum) (protein)
# chain: ADPICGSSGYSCTTPAILTPKSPGSFPSGYSKVIVTGVGGSYSVYIHRPDGFKVYKASEGGCASFGSYSGGGNSEVGKYGSGGTVVAVACK
# Experiments:
# Assay in all cases: glycan array binding signal (z-score within array); higher = stronger binding
# Details in all cases: glycan notation: IUPAC condensed, linker removed
# GlcNAc(b1-3)GalNAc = target: GlcNAc(b1-3)GalNAc
# Method in brief: (§1)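 The binding signal is a Z-score computed within each array and averaged over linkers. Arrays of the same protein sequence at different concentrations or buffers were also averaged together. Data originate from 3228 arrays in the Consortium for Functional Glycomics database, kept only where the protein sequence was available.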
# GlcNAc(b1-3)Man = target: GlcNAc(b1-3)Man
# Method in brief: as §1
# [1] = target: GlcNAc(b1-3)[GlcNAc(b1-4)][GlcNAc(b1-6)]GlcNAc
# Method in brief: as §1
# [2] = target: GlcNAc(b1-3)[GlcNAc(b1-6)]Gal(b1-4)GlcNAc
# Method in brief: as §1
# [3] = target: GlcNAc(b1-3)[GlcNAc(b1-6)]GalNAc
# Method in brief: as §1
# [4] = target: GlcNAc(b1-4)Gal(b1-4)GlcNAc
# Method in brief: as §1
# GlcNAc(b1-4)GlcNAc = target: GlcNAc(b1-4)GlcNAc
# Method in brief: as §1
# [5] = target: GlcNAc(b1-4)GlcNAc(b1-4)GlcNAc
# Method in brief: as §1
# [6] = target: GlcNAc(b1-4)GlcNAc(b1-4)GlcNAc(b1-4)GlcNAc(b1-4)GlcNAc
# Method in brief: as §1
# [7] = target: GlcNAc(b1-4)GlcNAc(b1-4)GlcNAc(b1-4)GlcNAc(b1-4)GlcNAc(b1-4)GlcNAc
# Method in brief: as §1
# [8] = target: GlcNAc(b1-4)[GlcNAc(b1-6)]GalNAc
# Method in brief: as §1
# [9] = target: GlcNAc(b1-6)Gal(b1-4)GlcNAc
# Method in brief: as §1
# GlcNAc(b1-6)GalNAc = target: GlcNAc(b1-6)GalNAc
# Method in brief: as §1
# [10] = target: GlcNAc6S(b1-3)Gal(b1-4)GlcNAc
# Method in brief: as §1
# Kdn(a2-3)Gal(b1-3)GalNAc = target: Kdn(a2-3)Gal(b1-3)GalNAc
# Method in brief: as §1
# Kdn(a2-3)Gal(b1-3)GlcNAc = target: Kdn(a2-3)Gal(b1-3)GlcNAc
# Method in brief: as §1
# Kdn(a2-3)Gal(b1-4)Glc = target: Kdn(a2-3)Gal(b1-4)Glc
# Method in brief: as §1
# Kdn(a2-3)Gal(b1-4)GlcNAc = target: Kdn(a2-3)Gal(b1-4)GlcNAc
# Method in brief: as §1
# [11] = target: Kdn(a2-3)Gal(b1-4)[Fuc(a1-3)]GlcNAc
# Method in brief: as §1
# Kdn(a2-6)Gal(b1-4)GlcNAc = target: Kdn(a2-6)Gal(b1-4)GlcNAc
# Method in brief: as §1
# [12] = target: Man(a1-2)Man(a1-2)Man(a1-3)Man
# Method in brief: as §1
# [13] = target: Man(a1-2)Man(a1-2)Man(a1-6)[Man(a1-3)]Man
# Method in brief: as §1
# Man(a1-2)Man(a1-3)Man = target: Man(a1-2)Man(a1-3)Man
# Method in brief: as §1
binder,measurement,setting,value
B1,glycan array binding signal (z-score),GlcNAc(b1-3)GalNAc,-0.271
same,glycan array binding signal (z-score),GlcNAc(b1-3)Man,-0.242
same,glycan array binding signal (z-score),[1],-0.299
same,glycan array binding signal (z-score),[2],-0.304
same,glycan array binding signal (z-score),[3],-0.246
same,glycan array binding signal (z-score),[4],-0.205
same,glycan array binding signal (z-score),GlcNAc(b1-4)GlcNAc,-0.273
same,glycan array binding signal (z-score),[5],-0.21
same,glycan array binding signal (z-score),[6],-0.153
same,glycan array binding signal (z-score),[7],-0.274
same,glycan array binding signal (z-score),[8],-0.269
same,glycan array binding signal (z-score),[9],-0.23
same,glycan array binding signal (z-score),GlcNAc(b1-6)GalNAc,-0.24
same,glycan array binding signal (z-score),[10],-0.236
same,glycan array binding signal (z-score),Kdn(a2-3)Gal(b1-3)GalNAc,-0.259
same,glycan array binding signal (z-score),Kdn(a2-3)Gal(b1-3)GlcNAc,-0.261
same,glycan array binding signal (z-score),Kdn(a2-3)Gal(b1-4)Glc,-0.28
same,glycan array binding signal (z-score),Kdn(a2-3)Gal(b1-4)GlcNAc,-0.282
same,glycan array binding signal (z-score),[11],-0.289
same,glycan array binding signal (z-score),Kdn(a2-6)Gal(b1-4)GlcNAc,-0.177
same,glycan array binding signal (z-score),[12],-0.275
same,glycan array binding signal (z-score),[13],-0.238
same,glycan array binding signal (z-score),Man(a1-2)Man(a1-3)Man,-0.268

# — the supplement of paper PMC8728848
